± gives the standard deviation of the averaged measurements. The full ranking holds about 33,000 sequences; the median of “E-score (dimensionless, -0.5 to 0.5)” is about -0.049, and the highest 2% start at about 0.37. Some of the results follow.
test system: T1, PmTbr T-box DNA-binding domain (GST fusion); assay: PBM E-score of 8-mer (E-score (dimensionless, -0.5 to 0.5)); Tbr is Tbrain of the sea star Patiria miniata (Pm) or the sea urchin Strongylocentrotus purpuratus (Sp); higher = stronger binding preference; most listed sequences are background and not binding sites; details: the construct has about 5 more residues each side
T1 sequence: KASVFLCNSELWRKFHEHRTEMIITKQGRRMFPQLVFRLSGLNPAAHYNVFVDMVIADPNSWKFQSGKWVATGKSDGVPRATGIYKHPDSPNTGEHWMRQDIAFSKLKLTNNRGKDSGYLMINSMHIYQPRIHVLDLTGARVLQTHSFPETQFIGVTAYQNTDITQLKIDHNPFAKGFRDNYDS
Outline: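 Expression of GST-fused Tbr T-box DNA-binding domains, each holding the full T-box plus roughly five flanking residues, was carried out in BL21 E. coli at 20 °C, with purification by glutathione affinity chromatography. Universal Agilent arrays made double-stranded by primer extension were incubated with the protein at 200 nM in PBS (pH 7.5), then scanned and quantified. All ungapped 8-mers were scored from probe intensities, and each received an enrichment E-score from the Universal PBM Analysis Suite, averaged over duplicate arrays.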

| Sequence | PBM E-score of 8-mer |
| --- | --- |
| ATCCGCTC | -0.151 ± 0.024 |
| AAACGCGA | 0.123 ± 0.011 |
| GTCGCGTA | 0.0036 ± 0.036 |
| ATCGCCAT | -0.0445 ± 0.069 |
| AAGCGAGT | -0.184 ± 0.018 |
| ACTTATAG | 0.0221 ± 0.063 |
| ATAAAGAC | -0.265 ± 0.06 |
| ATTAAAAG | -0.18 ± 0.078 |
| AATAGAGG | -0.0466 ± 0.021 |
| ATCTTACG | -0.191 ± 0.0052 |
| AAGTTTGG | -0.143 ± 0.031 |
| CCGCCGAG | -0.088 ± 0.026 |
| AACTGCGG | -0.0835 ± 0.035 |
| CGACAACG | 0.253 ± 0.015 |
| ATTAACGA | 0.0284 ± 0.0082 |
| AACATGTC | 0.0456 ± 0.014 |
| GACAGACA | 0.162 ± 0.01 |
| ATTATCTG | 0.018 ± 0.036 |
| CTGGAGGC | -0.115 ± 0.0062 |
| AGTTTATC | 0.00368 ± 0.075 |
| CTTTGCCA | 0.0404 ± 0.032 |
| ATTGCGGC | -0.05796 ± 0.00038 |

| Sequence | PBM E-score of 8-mer |
| --- | --- |
| ATTCGGGA | -0.206 ± 0.0048 |
| CCATCGTA | -0.139 ± 0.024 |
| AATTCTTA | -0.0772 ± 0.14 |
| CCCGGGAA | 0.0439 ± 0.1 |
| ACCGCAAA | -0.222 ± 0.011 |
| CATTGACG | 0.0782 ± 0.033 |
| CCGTAGCA | -0.0821 ± 0.057 |
| GAACGAAA | -0.125 ± 0.04 |
| AGGTTAAC | 0.0272 ± 0.035 |
| GGTACTTA | -0.233 ± 0.098 |
| ATAGAGTC | -0.207 ± 0.029 |
| ACCTTTGC | 0.157 ± 0.032 |
| CCAGTGGG | -0.248 ± 0.01 |
| CCGTCCGA | -0.0765 ± 0.0039 |
| ACACGTCC | 0.274 ± 0.034 |
| CCGGGAAG | 0.0857 ± 0.11 |
| AAGATCGC | 0.222 ± 0.022 |
| AGAGTATG | -0.216 ± 0.018 |
| CGATACAG | -0.000805 ± 0.045 |
| CCAATTTC | 0.122 ± 0.018 |
| AAATCGCT | -0.000345 ± 0.006 |
| CAGTAGCC | -0.264 ± 0.099 |

| Sequence | PBM E-score of 8-mer |
| --- | --- |
| CCCCGCTC | -0.0302 ± 0.034 |
| ACGGTCCA | -0.239 ± 0.031 |
| GCTATATA | -0.0209 ± 0.017 |
| CGATCAAC | 0.124 ± 0.016 |
| ACATCACG | 0.224 ± 0.06 |
| ACCGCCCC | -0.214 ± 0.012 |
| TACACTAA | 0.102 ± 0.059 |
| ATGAGATG | -0.0845 ± 0.075 |
| AAAGAGCC | -0.307 ± 0.026 |
| ATGGCCTG | -0.144 ± 0.05 |
| CTTTGCTC | -0.0392 ± 0.02 |
| AGCTTAAG | -0.102 ± 0.017 |
| TAGCTGAA | -0.173 ± 0.039 |
| GTCTGCAC | 0.00575 ± 0.015 |
| AGTTCCCG | -0.219 ± 0.054 |
| AGCAAGAA | -0.199 ± 0.022 |
| AACTAGGC | -0.0964 ± 0.044 |
| CGCTTCCG | -0.019 ± 0.12 |
| CAGTCCTA | -0.134 ± 0.029 |
| ACCGGACT | -0.277 ± 0.035 |
| CAGCGATG | 0.0886 ± 0.0054 |
| GAGTTGAC | 0.155 ± 0.052 |

| Sequence | PBM E-score of 8-mer |
| --- | --- |
| GAGCCAAC | -0.0524 ± 0.01 |
| CATCAGAA | -0.195 ± 0.025 |
| AGGGCTGC | -0.224 ± 0.054 |
| GAAACCCC | -0.137 ± 0.076 |
| GGGTTTGA | -0.086 ± 0.051 |
| ATTTCGGA | -0.17 ± 0.027 |
| GTGTGTCA | 0.348 ± 0.02 |
| GGACACGA | -0.0508 ± 0.0053 |
| ATAACAAT | 0.0445 ± 0.058 |
| ACCCCCAC | -0.211 ± 0.013 |
| TAAGGGGA | -0.118 ± 0.062 |
| ATCATCGG | -0.00423 ± 0.0083 |
| AGAGTCAT | -0.298 ± 0.046 |
| GCGCGTTA | 0.238 ± 0.0084 |
| AGCGTCAA | 0.258 ± 0.0039 |
| ACTTCGAA | 0.021 ± 0.047 |
| ATTGACGC | 0.263 ± 0.0065 |
| CAGTATCC | -0.131 ± 0.1 |
| CGGATAAC | -0.166 ± 0.025 |
| GAACCGAC | 0.0435 ± 0.047 |
| GGGCGCAC | -0.164 ± 0.092 |
| CTCCCTAC | -0.223 ± 0.026 |

| Sequence | PBM E-score of 8-mer |
| --- | --- |
| CGTGGTCA | 0.138 ± 0.057 |
| ATAAAATG | -0.0255 ± 0.13 |
| ACTCTGGC | -0.0256 ± 0.038 |
| AATATTAC | -0.0828 ± 0.013 |
| AGCGGGAT | -0.246 ± 0.072 |
| AAGGACCA | -0.265 ± 0.027 |
| ATATCGCA | 0.234 ± 0.055 |
| GATATGGC | -0.171 ± 0.056 |
| ATTTCATG | -0.162 ± 0.02 |
| ATTGAGTA | -0.0133 ± 0.042 |
| CCGGGAGG | -0.00899 ± 0.027 |
| CGAAATGA | 0.108 ± 0.024 |
| CAGAAGGC | 0.226 ± 0.0031 |
| CTGTTGGA | 0.0599 ± 0.038 |
| AGACAGAA | -0.132 ± 0.01 |
| GGAGACTA | -0.272 ± 0.0049 |
| ACAGATGG | -0.119 ± 0.0064 |
| ACACGTGT | 0.403 ± 0.023 |
| AGGATGAC | 0.00519 ± 0.064 |
| ATGGTCGA | 0.00263 ± 0.016 |
| GAACGTCA | -0.0912 ± 0.074 |
